Experimental data from PubChem BioAssay AID485360 (National Center for Advancing Translational Sciences (NCATS), 2010).
Screen size: about 230,000 compounds; about 1,500 (0.65%) were called active. The shares of active, inactive and inconclusive entries below differ from those in the screen. Calls follow the shape of the dose curve; as a rule, active = well fitted inhibition curve with a large enough effect; inconclusive = small, poorly fitted or top-dose-only effect; inactive = no such curve, though single readings can be large or run the other way. Potencies beside an inconclusive call are fits to weak or partial responses and may not hold up.

target: Lethal(3)malignant brain tumor-like protein 1 (Homo sapiens) (UniProt Q9Y468); assay: qHTS Assay for the Inhibitors of L3MBTL1; details: AlphaScreen L3MBTL1–H3K9me1 peptide binding; activity, negative = inhibition: at 57.1 µM (top of the series); also: nearly all actives have a fitted effect of over 60% in size
Chain of UniProt Q9Y468 (Q9Y468 whole entry, looked up): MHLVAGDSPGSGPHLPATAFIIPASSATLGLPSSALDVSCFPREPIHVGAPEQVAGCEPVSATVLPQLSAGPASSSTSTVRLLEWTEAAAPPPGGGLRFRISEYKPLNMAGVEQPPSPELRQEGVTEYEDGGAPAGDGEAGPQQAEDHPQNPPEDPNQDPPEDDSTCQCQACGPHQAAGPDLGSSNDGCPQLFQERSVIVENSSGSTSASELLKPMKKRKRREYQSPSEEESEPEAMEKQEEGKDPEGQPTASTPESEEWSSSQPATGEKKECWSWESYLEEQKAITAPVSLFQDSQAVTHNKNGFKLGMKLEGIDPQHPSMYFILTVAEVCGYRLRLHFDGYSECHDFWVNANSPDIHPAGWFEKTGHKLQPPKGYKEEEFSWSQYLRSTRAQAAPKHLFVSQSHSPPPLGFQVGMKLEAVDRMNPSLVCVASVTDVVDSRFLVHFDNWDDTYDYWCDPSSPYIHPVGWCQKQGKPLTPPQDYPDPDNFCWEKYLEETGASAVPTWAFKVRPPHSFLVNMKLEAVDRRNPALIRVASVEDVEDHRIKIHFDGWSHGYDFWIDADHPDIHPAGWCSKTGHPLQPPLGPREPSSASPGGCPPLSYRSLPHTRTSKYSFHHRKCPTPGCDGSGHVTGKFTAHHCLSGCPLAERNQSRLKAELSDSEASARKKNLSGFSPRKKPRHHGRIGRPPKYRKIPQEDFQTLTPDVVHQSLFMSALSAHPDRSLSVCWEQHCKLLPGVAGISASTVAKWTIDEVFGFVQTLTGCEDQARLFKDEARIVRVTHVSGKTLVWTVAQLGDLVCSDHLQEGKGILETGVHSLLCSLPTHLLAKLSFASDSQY
Procedure, shortened: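 AlphaScreen assay: L3MBTL1 (50 nM final) was preincubated 30 min at room temperature with biotinylated H3(1-15)K9me1 peptide (75 nM final), then 30 min with library compounds; streptavidin donor and nickel chelate acceptor beads (10 ug/mL final) added, 30 min dark.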
% is scaled to controls: 0 for no effect and ±100 for the full control effect; potency is read from the fitted curve at half-maximal effect; tags tell the direction and shape of the fitted curve.

SMILES	Potency	activity, negative = inhibition
CCC(=O)NC(c1cccs1)c1cc([N+](=O)[O-])c2cccnc2c1O (configuration not stated)	active: 10 µM	–
O=C(O)CCc1ccc(-c2ccc(Br)cc2)n1CC(=O)O	inconclusive: 35.5 µM [inhibitor, single point]	–
Cc1sc2ncnc(SCC(=O)NC(=O)NCc3ccco3)c2c1C	inconclusive: 35.5 µM [inhibitor, single point]	–
O=C(CCC(=O)N1CCSc2ccccc21)NCCc1ccccc1	inconclusive: 31.6 µM [inhibitor, single point]	–
c1ccc2c(c1)nc(Nc1ccc(N3CCCCC3)cc1)c1nncn12	inconclusive: 39.8 µM [inhibitor, single point]	–
O=C(Cn1ccc(NC(=O)OCc2ccccc2)nc1=O)NCCc1c[nH]c2ccccc12	–	inactive: 2.78%
COc1ccccc1-n1ccnc(SCC(=O)NC2CCCCC2)c1=O	inconclusive: 3.55 µM [inhibitor, single point]	–
CC1CCN(C(=O)c2cc(-c3ccc(Cl)c(Cl)c3)on2)CC1	inconclusive: 6.31 µM [inhibitor, single point]	–
CCOC(=O)N1CCN(C(=O)C2CCN(S(C)(=O)=O)CC2)CC1	inconclusive: 0.891 µM [inhibitor, single point]	–
O=C(NNC(=O)c1csc(N2CCOCC2)n1)c1ccc(=O)[nH]c1	inconclusive: 0.794 µM [inhibitor, single point]	–
CC(=O)c1ccc(-c2ccc(C(=O)N3CCN(c4ccc(F)cc4)CC3)o2)cc1	inconclusive: 22.4 µM [inhibitor, single point]	–
C/C(=N\NC(=O)COc1ccc(C)cc1[N+](=O)[O-])c1cccs1	inconclusive: 0.316 µM [inhibitor, full curve, poor fit]	–
O=C(Nc1nc(-c2ccco2)c(-c2ccco2)s1)C1CC(=O)N(c2ccc3c(c2)OCCO3)C1 (configuration not stated)	inconclusive: 5.01 µM [inhibitor, single point]	–
COCCN(C(=O)c1cc(-c2ccco2)nc2ccccc12)c1c(N)n(Cc2ccccc2)c(=O)[nH]c1=O	inconclusive: 15.8 µM [inhibitor, single point]	–
CC(=O)c1ccc(S(=O)(=O)Nc2ccc(-n3cnnn3)cc2)cc1	inconclusive: 35.5 µM [inhibitor, single point]	–
CC(C)(C)C1C/C(=C/c2ccco2)C(=O)/C(=C/c2ccco2)C1 (configuration not stated)	inconclusive: 31.6 µM [inhibitor, single point]	–
CN(C)C(=S)Nc1nc2ccccc2s1	inconclusive: 31.6 µM [inhibitor, single point]	–
CCOC(=O)Cc1c(C)nc2c(-c3ccccc3)c(C)nn2c1C	inconclusive: 10 µM [inhibitor, partial curve]	–
COc1nccnc1NS(=O)(=O)c1ccc(NC(=S)NC(=O)c2ccc(F)c(F)c2)cc1	–	inactive: -0.0627%
N#C/C(=C\C1=C(N2CCOCC2)C(=C/c2cccc([N+](=O)[O-])c2)/CC1)C(=O)Nc1ccccc1F	inconclusive: 14.1 µM [inhibitor, partial curve]	–
COc1cc(C2C(C(=O)c3ccco3)=C(O)C(=O)N2c2cc(C)on2)cc(Br)c1O (configuration not stated)	–	inactive: 0.0895%
C=CC[C@@H](Cc1ccc(F)cc1)C(=O)OC[C@@H]1CCCN1C(=O)[C@H](CC=C)CC(=O)NCCO	inconclusive: 0.708 µM [inhibitor, single point]	–
CC1=CN2C(=N)/C(=C/c3ccc(Sc4ccc(C)cc4)o3)C(=O)N=C2S1	inconclusive: 17.8 µM [inhibitor, partial curve]	–

SMILES	Potency	activity, negative = inhibition
Cc1noc(C)c1C(=O)Nc1sc2c(c1C(N)=O)CCCCC2	inconclusive: 2.24 µM [inhibitor, single point]	–
CC(C)c1ccc(NC(=O)Cn2cccc2C2=NC(c3ccccc3)CO2)cc1 (configuration not stated)	inconclusive: 0.501 µM [inhibitor, partial curve, poor fit]	–
COc1cc(C(c2oc(CO)cc(=O)c2O)c2oc(CO)cc(=O)c2O)cc(OC)c1OC	–	inactive: -29.1%
Clc1ccc(N=c2ssnc2Cl)nc1	inconclusive: 7.08 µM [inhibitor, single point]	–
NC(=O)c1ccc(N2CCCCCC2)c([N+](=O)[O-])c1	inconclusive: 0.1 µM [inhibitor, full curve, poor fit]	–
CC(C)C(=O)Nc1ccc(NC(=O)c2ccco2)cn1	–	inactive: -2.63%
CSc1ncccc1C(=O)N1CCCC(C(=O)c2ccc3ccccc3c2)C1 (configuration not stated)	–	inactive: -12.5%
COc1cccc(C(=O)O/N=C(\N)c2ccccn2)c1	–	inactive: 0.577%
COc1cc2c(-c3ccc(O)cc3)nc3c(c(C)nn3-c3ccccc3)c2cc1OC	–	inactive: 6.8%
COCC(=O)Oc1c(S(=O)(=O)c2ccc(C)cc2)c(C)nn1-c1ccccc1	–	inactive: 1.05%
CCOC(=O)N1CCN(CC(O)COc2ccc(OC)cc2C(C)(C)C)CC1 (configuration not stated)	–	inactive: -3.01%
Cc1ccc(NC2c3ncccc3C(=O)N2Cc2cccs2)cc1C (configuration not stated)	inconclusive: 14.1 µM [inhibitor, partial curve]	–
Cc1ccc(C(=O)N/C(=C\c2ccco2)C(=O)NCCCn2ccnc2)cc1C	inconclusive: 25.1 µM [inhibitor, single point]	–
Oc1c(C(c2ccc(Cl)cc2)N2CCCC2)cc(Cl)c2cccnc12 (configuration not stated)	inconclusive: 39.8 µM [inhibitor, single point]	–
Nc1nnc(-c2ccccc2[N+](=O)[O-])o1	inconclusive: 0.0708 µM [inhibitor, full curve, poor fit]	–
CCOc1ccccc1OCC(=O)NCc1ccco1	inconclusive: 25.1 µM [inhibitor, single point]	–
COc1cc(/C=C2\SC(=Nc3ccc(Cl)c(C(=O)O)c3)NC2=O)c(Br)c(Br)c1O	active: 31.6 µM	–
COc1ccc(OCCC(=O)OCC(=O)NCc2ccco2)cc1	inconclusive: 28.2 µM [inhibitor, single point]	–
CCn1cc(Cl)c(C(=O)Nc2ccccc2C(N)=O)n1	inconclusive: 0.1 µM [inhibitor, full curve, poor fit]	–
O=C(Nc1ccc2nc(-c3ccco3)c(-c3ccco3)nc2c1)N1CCCCCC1	active: 3.55 µM	–
COc1ccc(-n2cccc2C=O)cc1OC	inconclusive: 39.8 µM [inhibitor, single point]	–
Nc1ccc(Br)c2c1C(=O)c1ccccc1C2=O	inconclusive: 12.6 µM [inhibitor, partial curve]	–
Cc1ccc2nc(N3C(=O)C(O)=C(C(=O)c4ccc(C)o4)C3c3ccco3)sc2c1 (configuration not stated)	inconclusive: 39.8 µM [inhibitor, single point]	–

SMILES	Potency	activity, negative = inhibition
N#CC1(NC(=O)CSc2n[nH]c(-c3ccccc3)n2)CCCCC1	–	inactive: -2.04%
O=C1CCCCCN1Cc1ccccc1	inconclusive: 6.31 µM [inhibitor, single point]	–
O=C(Cn1cc(C(=O)C2CCCCC2)c2ccccc21)NCC1CCCO1 (configuration not stated)	inconclusive: 0.631 µM [inhibitor, single point]	–
CNC(=S)Nc1ccc(OC(F)(F)F)cc1	inconclusive: 0.708 µM [inhibitor, partial curve, poor fit]	–
CC1CCN(C(=O)CSc2ccc(-c3ccccc3)nn2)CC1	inconclusive: 44.7 µM [inhibitor, partial curve, poor fit]	–
Nc1ccccc1Sc1nc2ccccc2[nH]1	inconclusive: 44.7 µM [inhibitor, partial curve, poor fit]	–
CC(=O)CSc1ccc(-c2nc3ccccc3[nH]2)cn1	–	inactive: -3.14% [at 2.29 µM]
Cc1ccc(C(=O)N/N=C2\CCCc3ccccc32)c(C)c1	inconclusive: 31.6 µM [inhibitor, single point]	–
Cc1ccc(NC(=O)COC(=O)Cn2cnc3c2c(=O)n(C)c(=O)n3C)cc1Cl	inconclusive: 39.8 µM [inhibitor, single point]	–
O=[N+]([O-])c1ccccc1Nc1nc(-c2cccnc2)cs1	inconclusive: 28.2 µM [inhibitor, single point]	–
O=C(/C=C/c1ccccc1)CC(=O)c1ccccc1O	–	inactive: -26.6%
Cc1cccc(C(=O)N[C@H](C(=O)Nc2nccs2)C(C)C)c1	inconclusive: 0.631 µM [inhibitor, single point]	–
Cc1c(C(=O)O)sc2nc(CSc3ncc(C(F)(F)F)cc3Cl)[nH]c(=O)c12	inconclusive: 28.2 µM [inhibitor, single point]	–
CCN(CC)c1ccc(C(=O)c2ccccc2C(=O)O)c(O)c1	inconclusive: 5.01 µM [inhibitor, full curve, poor fit]	–
Cc1cc(C)cc(-n2ccnc2SCC(=O)Nc2ccc3c(c2)OCCO3)c1	inconclusive: 39.8 µM [inhibitor, single point]	–
OCc1csc(=Nc2ccccc2)n1-c1ccccc1	inconclusive: 3.98 µM [inhibitor, single point]	–
O=C(O)c1[nH]c2ccc(Cl)cc2c1CC(=O)N1CCN(C(=O)c2ccco2)CC1	inconclusive: 28.2 µM [inhibitor, single point]	–
CC1=NN(c2ccc(Br)cc2)C(=O)/C1=C/c1cccs1	inconclusive: 31.6 µM [inhibitor, single point]	–
COc1ccc(C(C)(C)C)cc1NC(=S)NCCN1CCOCC1	inconclusive: 0.794 µM [inhibitor, single point]	–
Cc1ccccc1C(=O)Nc1ccc2c(C#N)c3nc4ccccc4nc3n2c1	inconclusive: 39.8 µM [inhibitor, single point]	–
Cc1ccc(S(=O)(=O)N2CCN(CCC#N)CC2)cc1	inconclusive: 0.708 µM [inhibitor, full curve, poor fit]	–
